Where “and” joins values, the source holds several entries; their conditions need not be identical. Equal entries are not always repeated. In all, about 73,000 compounds went through this assay and about 1,800 (2.5%) were called active. Inconclusive results, whose numbers are uncertain, are shown with a selection of clear calls. Calls follow the shape of the dose curve; as a rule, active = well fitted activation curve with a large enough effect; inconclusive = small, poorly fitted or top-dose-only effect; inactive = no such curve, though single readings can be large or run the other way. Where the call is inconclusive, the potency comes from a doubtful curve fit.
Assay: qHTS Assay for Agonists of the Thyroid Stimulating Hormone Receptor: Activators of Intracellular cAMP Concentrations in Parental HEK 293; also: nearly all actives have a fitted effect of over 55% in size; as to activation: % of control where 0% means no effect
Conditions: parental HEK293 CNG cAMP sensor, membrane potential fluorescence; activation: at 57.1 µM (top of the series) unless noted
Summary of the method: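 Parental HEK 293 cells stably expressing a modified CNG channel (no TSHR) report cAMP rise as membrane depolarization. Membrane potential dye with 100 uM RO 20-1724 was loaded for 60 min at room temperature, then compound added for 30 min; fluorescence read at 590 nm.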
With `NC[C@H](O)C1CCCCCCC1` the “activation” value was inactive: -1.23%.
For `CC(=O)OC[C@@H]1O[C@H](C/C=N\O[C@@H](C)c2cc(-c3c(C)cc(C)cc3C)no2)C=C[C@@H]1OC(C)=O`, the activation was inactive: 14.1% [at 11.4 µM].
For `N#Cc1cccc(-c2ccc3ncnc(NCc4cccs4)c3c2)c1`, the Potency was inconclusive: 25.1 µM [activator, single point].
With `CC1=C(C(=O)OC2CCCCC2)C(c2ccc(C)o2)C2=C(CC(C)(C)CC2=O)N1` (centres undefined) the Potency was inconclusive: 0.794 µM [activator, full curve, poor fit].
With `COc1ccc(Br)cc1CNC(=O)C1CCCN(c2nc3ccccc3o2)C1` (centres undefined) the Potency was inconclusive: 39.8 µM [activator, single point].
In the case of `CCC(C)(c1ccc(C(=O)OC)s1)c1ccc(C(=O)OC)s1`, the Potency was active: 20 µM.
For `Cc1ccccc1CS(=O)(=O)Cc1ccc(C(=O)NCc2ccccn2)o1`, the “activation” value was inactive: 2.33%.
With `Cc1cc(C)n(-c2nc3ccccc3c(=O)n2OC2CCCCC2)n1` the “activation” value was inactive: 16.8%.
With `c1cc2[nH]snc2c2nc(C3CC3)nc12` the Potency was inconclusive: 7.94 µM [activator, single point].
For `Cc1nc2cnc(Nc3ccccc3)nc2n(CCc2ccccc2)c1=O`, the Potency was inconclusive: 5.01 µM [activator, single point].
In the case of `CN1CCN(c2ccccc2NC(=O)c2ccc(-c3ccccc3)cc2)CC1`, the “activation” value was inactive: -24.9%.
For `O=C(c1cccs1)c1no[n+]([O-])c1C(=O)c1cccs1`, the “activation” value was inactive: -3.83%.
In the case of `CN(C)CCn1c(C(=O)Nc2ccccc2)cc2ccccc21`, the Potency was active: 2 µM.
With `OC(CNCC(c1ccco1)N1CCCCC1)c1ccccc1` (centres undefined) the Potency was inconclusive: 25.1 µM [activator, single point].
In the case of `c1cncc(-c2nc(NCCN3CCOCC3)c3ccccc3n2)c1`, the “activation” value was inactive: 0.279%.
With `COc1ccc(N(CC(O)Cn2nnc3ccccc32)S(=O)(=O)c2ccc(C)cc2)cc1` (centres undefined) the “activation” value was inactive: 13.7%.
For `CC(C)N(C(=O)COc1ccc(Br)cc1Cl)C(C)C`, the Potency was inconclusive: 31.6 µM [activator, partial curve].
With `O=C(CSc1nc2ccccc2s1)N1CCN(C(=O)c2ccco2)CC1` the “activation” value was inactive: 0.896%.
With `Cc1cc2cc(CCNC(=O)C(C)C)c(=O)[nH]c2cc1C` the Potency was inconclusive: 39.8 µM [activator, single point].
In the case of `O=C(O)CCC(=O)c1ccc[nH]1`, the Potency was inconclusive: 6.31 µM [activator, single point].
In the case of `CC(=O)c1c(N)c(C#N)c(C)n1-c1ccc(Br)cc1`, the Potency was inconclusive: 25.1 µM [activator, partial curve].
In the case of `Cc1ccc(C)c(N2CCN(S(=O)(=O)c3ccc4c(c3)CCC(=O)N4)CC2)c1`, the Potency was inconclusive: 31.6 µM [activator, single point].
With `CCCCOc1ccc(S(=O)(=O)Nc2cc(OC)ccc2OC)cc1` the Potency was inconclusive: 25.1 µM [activator, single point].
For `N#Cc1cc2c(nc1SCC1COc3ccccc3O1)CCC2` (centres undefined), the Potency was inconclusive: 15.8 µM [activator, single point].
For `COc1cc(NC(=O)C(C)C)ccc1NC(=O)c1ccco1`, the “activation” value was inactive: 6.62%.
For `CCCC(=O)NCCc1c2n(c3ccc(OC)cc13)Cc1ccccc1-2`, the “activation” value was inactive: -25.7%.
For `COc1ccc(N2CCN(CCCNS(=O)(=O)c3ccc4c(c3)oc(=O)n4C)CC2)cc1`, the Potency was inconclusive: 7.94 µM [activator, single point].
In the case of `CSc1oc(-c2ccccc2)nc1S(=O)(=O)c1ccc(F)cc1`, the Potency was inconclusive: 31.6 µM [activator, single point].
With `CCC12CN3CC(CC)(CN(C1)C31C(=O)N(C)c3ccc(C)cc31)C2=O` (centres undefined) the Potency was inconclusive: 3.16 µM [activator, full curve, poor fit].
With `CCC(C)NC(=O)CSc1nc2ccc(N3CCOCC3)cc2c(=O)n1CCc1ccccc1` (centres undefined) the Potency was inconclusive: 39.8 µM [activator, single point].
In the case of `COc1ccc(NC(=O)c2ccccc2NS(C)(=O)=O)cc1OC`, the “activation” value was inactive: -3.14%.
With `O=C(O)[C@@H]1CS[C@@]2(CCCN(Cc3ccccc3)C2)N1` the activation was inactive: -3.58% [at 11.4 µM].
With `O=C(NCCCc1ccccc1)C1CCN(c2nnc(-n3cccc3)s2)CC1` the Potency was inconclusive: 31.6 µM [activator, single point].
In the case of `COC(=O)[C@@]1(Cc2ccccc2)[C@H]2c3cc(C(=O)N(C)C)n(Cc4cc(F)c(F)c(F)c4)c3C[C@H]2CN1C(=O)c1ccccc1`, the Potency was inconclusive: 0.794 µM [activator, full curve].
In the case of `CCS(=O)(=O)N1CCCC(C(=O)NCC2CCCO2)C1` (centres undefined), the Potency was inconclusive: 3.16 µM [activator, single point].
For `COC(=O)c1cc2nc(-c3ccc(OC)cc3)cc(C(F)(F)F)n2n1`, the “activation” value was inactive: -2.4%.
In the case of `Cc1nc2cnc(N3CCNCC3)nc2n(Cc2ccc(F)cc2)c1=O`, the Potency was inconclusive: 3.16 µM [activator, partial curve].
With `COc1ccc2c3c([nH]c2c1)[C@@H]1C[C@@H]2[C@@H](C[C@H](O)[C@H](OC)[C@H]2C(=O)O)CN1CC3` the Potency was inconclusive: 0.794 µM [activator, full curve, poor fit].
In the case of `CCOC(=O)c1[nH]c2ccc(F)cc2c1NC(=O)c1cc(OC)c(OC)c(OC)c1`, the “activation” value was inactive: -6.95%.
In the case of `COc1ccc(OCC(=O)Nc2cccc(-c3nc4ccccc4o3)c2)cc1`, the Potency was inconclusive: 3.98 µM [activator, single point].
For `COC(=O)CN(C(=O)CSc1nnc(-c2cccc(OC)c2)o1)c1ccc(OC)cc1`, the Potency was inconclusive: 39.8 µM [activator, single point].
With `CCCn1c(SCC(=O)Nc2ccccc2C(=O)OC)nc2c1c(=O)n(C)c(=O)n2C` the Potency was inconclusive: 15.8 µM [activator, partial curve].
With `Nc1nc(SCC(=O)NCCCN2CCOCC2)nc2sc3c(c12)CCC3` the Potency was inconclusive: 31.6 µM [activator, single point].
For `O=C(NCCCN1CCN(c2cccc(Cl)c2)CC1)C1CCC(=O)N1Cc1ccccc1Cl` (centres undefined), the Potency was inconclusive: 25.1 µM [activator, single point].
For `CN1CCc2c(sc3c2c(=O)n(-c2ccccc2)c2nnc(SCc4ccc(F)cc4)n32)C1`, the “activation” value was inactive: 14.7%.
With `COc1ccc(OC)c(C(c2nnnn2C(C)(C)C)N2CCc3ccccc3C2)c1` (centres undefined) the Potency was inconclusive: 15.8 µM [activator, partial curve].
In the case of `O=C(c1ccc(F)cc1)c1ccc(N2CCCC2)cc1`, the Potency was inconclusive: 31.6 µM [activator, single point].
In the case of `Fc1ccc(Nc2nc(N3CCOCC3)c3ccccc3n2)cc1`, the Potency was inconclusive: 31.6 µM [activator, single point].
In the case of `Cc1ccc(C)c(-n2nnnc2Sc2nnnn2-c2ccccc2)c1`, the Potency was inconclusive: 39.8 µM [activator, single point].
In the case of `O=S(=O)(c1cc(Cl)ccc1Cl)N1CCCCC1`, the Potency was inconclusive: 20 µM [activator, partial curve].
With `O=C(NC1CCCCCCC1)C1=COCCO1` the “activation” value was inactive: -1.87%.
In the case of `CN(C)[C@H]1C(=O)C(C(=O)NCN2CCCC2)=C(O)[C@]2(O)C(=O)C3=C(O)c4c(O)cccc4[C@](C)(O)[C@H]3C[C@H]12`, the activation was inactive: 12.9% [at 11.4 µM].
With `Clc1cccc(-c2nnc(-c3ccccc3)o2)c1` the Potency was inconclusive: 15.8 µM [activator, partial curve].
For `c1ccc(C2(Cn3ccc4ccccc43)OCCO2)cc1`, the Potency was inconclusive: 25.1 µM [activator, partial curve].
For `C/C(N)=C(/C#N)C(=O)CSc1nnc(SCc2ccc(Cl)cc2)s1`, the Potency was active: 31.6 µM.
With `COc1ccc(S(=O)(=O)N2CCC(C(=O)N3CCCCC3)CC2)cc1OC` the Potency was inconclusive: 31.6 µM [activator, single point].
For `COC(=O)c1ccccc1NC(=O)CNc1cc(Cl)ccc1N1CCOCC1`, the Potency was inconclusive: 7.94 µM [activator, partial curve].
In the case of `Cc1ccc(C2NC(=O)c3c(sc4c3CCN(C)C4)N2)o1` (centres undefined), the “activation” value was inactive: 3.6%.
In the case of `Cc1ccccc1OCc1nc(-c2ccc(-n3cccc3)cc2)no1`, the Potency was inconclusive: 0.0063 µM [activator, full curve, poor fit].
For `O=C(Cn1c(=O)n2ncnc2c2c3c(sc21)CCCC3)c1ccccc1`, the Potency was active: 25.1 µM.
With `O=C1CCCC(O)=C1C1C2=C(CCCC2=O)Oc2ccccc21` (centres undefined) the Potency was inconclusive: 39.8 µM [activator, single point].
With `CN(C)c1ncc2nc(CCc3ccccc3)c(=O)n(C[C@H]3CCCO3)c2n1` the Potency was inconclusive: 3.98 µM [activator, full curve].
In the case of `COC(=O)c1ccccc1NC(=O)C1CC(c2ccccc2O)=NO1` (centres undefined), the Potency was inconclusive: 39.8 µM [activator, single point].
For `COC(=O)c1ccc(S(=O)(=O)N2CCCC2)o1`, the Potency was inconclusive: 39.8 µM [activator, single point].
In the case of `CCCCCCCC/C=C\CCCCCCCC(=O)NCCO`, the Potency was inconclusive: 5.01 µM [activator, single point] and inconclusive: 39.8 µM [activator, single point].
For `Cc1ccc2c(c1)CCCN2C(=O)c1ccc2c(c1)OCO2`, the Potency was inconclusive: 25.1 µM [activator, partial curve].
In the case of `Cc1cc(C)cc(N(CC(=O)NC2CCCCC2)C(=O)CCC(=O)Nc2cc(C)ccn2)c1`, the Potency was inconclusive: 31.6 µM [activator, single point].
For `COc1ccc(NC(=O)N(Cc2ccc(C)cc2)Cc2ccccn2)c(OC)c1`, the Potency was inconclusive: 10 µM [activator, partial curve].
For `CCN(CC)CCCNC(=O)c1cn(CCOC)c(=O)c2c1c1ccccc1n2C`, the Potency was inconclusive: 20 µM [activator, partial curve].

Source: PubChem BioAssay AID938 (National Center for Advancing Translational Sciences (NCATS), 2007)
Potency is read from the fitted curve at half-maximal effect; tags tell the direction and shape of the fitted curve.
